Laboratory results: PubChem BioAssay AID1362 (SRMLSC, 2008)
This is one part of the list. The main result of the screen is listed elsewhere. These columns were measured beside it and carry no call. The list favours compounds with an active or inconclusive main result.

Test: growth inhibition of WT strain, primary screen, mitochondrial fusion inhibitor project, WT and mutant strains, chemical genetic (AID 1362); note: tested in S. cerevisiae
Conditions: mitochondrial fusion phenotypic screen, at 10 µM

| Structure (SMILES) | inhibition |
| --- | --- |
| O=c1cc(-c2ccccc2Cl)oc2ccc([N+](=O)[O-])c(O)c12 | 45.3% |
| Cc1ccc(Nc2nc(-c3c(C)nc4ccccn34)cs2)cc1 | 68.5% |
| Cc1ccc(-c2cc(C(F)F)n3ncc(C(=O)N4CCc5ccccc5C4)c3n2)cc1 | 45.6% |
| O=P(OC1CCCCC1)(OC1CCCCC1)C(O)c1c(Cl)cccc1Cl (stereo not drawn) | 31% |
| C=CCNC(=S)N/N=C/c1ccc(N(CC)Cc2ccccc2)cc1 | 45.3% |
| COC(=O)C1=C(C)NC2=C(C(=O)CC(C)(C)C2)C1c1cn(Cc2ccc(Br)cc2)nc1-c1ccccc1 (stereo not drawn) | 13.8% |
| CN1CCN(c2nc(-c3ccccc3)nc(-c3ccccc3)c2C#N)CC1 | 66.2% |
| O=C1c2cnc3nc(SCc4ccccc4)nn3c2CC2c3ccccc3CCN12 (stereo not drawn) | 57.8% |
| CC(C)(C)c1ccc(C(=O)Nc2cccc([N+](=O)[O-])c2)cc1 | 28.6% |
| Cc1cccc(NC(=O)c2ccc(N3CCCCC3)c([N+](=O)[O-])c2)n1 | 12.8% |
| O=C1CC(N(CCc2ccccc2)C(=S)Nc2ccccc2)C(=O)N1c1ccc(Br)cc1 (stereo not drawn) | 65.3% |
| CC(C)CCNC(=O)CN(CC1CCCO1)C(=O)CCC(=O)Nc1ccccn1 (stereo not drawn) | -5.59% |
| CCC1=[N+](C)c2cccc3cccc(c23)N1C | 41.1% |
| Cn1c(/C=C/N2CCOCC2)c(C(=O)c2ccc(Br)cc2)c(=O)n(C)c1=O | 14.9% |
| O=C(c1cccs1)N1N=C(c2ccccc2)CC1c1ccccc1 (stereo not drawn) | 48.2% |
| CCOC(=O)c1cc2ccc3ccccc3c2s1 | 30.1% |
| CC(C)=CCC/C(C)=C/COc1ccc2ccc(=O)oc2c1 | 27% |
| CCn1cc(C(=O)N2CCc3ccccc32)c(=O)c2cc(S(=O)(=O)N(C)C3CCCCC3)ccc21 | -18.9% |
| Cc1cc(N2CCN(C(=O)c3ccco3)CC2)n2nc(C)c(-c3ccccc3)c2n1 | 40.1% |
| CCOC(=O)c1cc(-c2cccs2)nc2c1c(C)nn2-c1ccccn1 | 56.7% |
| CCOC(=O)c1c(NC(=O)CSc2nnc(N)s2)sc(C)c1-c1ccc(C)cc1 | 61.9% |
| COc1ccc(NC(=O)Nc2cccc([N+](=O)[O-])c2)cc1Cl | 12.9% |
| COc1cc(-c2nc3ccc4ccccc4c3c3c2CCC3)cc(OC)c1O | 96.5% |

| Structure (SMILES) | inhibition |
| --- | --- |
| COC(=O)c1c(NC(=O)CN2CCC3(O)CCCCC3C2c2ccccc2OC)sc(C)c1C (stereo not drawn) | 10.7% |
| O=C(CNCc1ccccc1Cl)Nc1ccccc1N1CCCCC1 | 15% |
| COC(=O)Cn1nc(-c2ccc(C)cc2)c2ccccc2c1=O | 61.5% |
| CCn1c(=O)c(C(=O)Nc2ncccc2C)c(O)c2ccccc21 | 46.7% |
| Cc1cccc(C)c1-n1cccc1/C=C1\SC(=S)N(c2cccc(C(=O)O)c2)C1=O | 79.9% |
| CC(=O)c1ccc(-n2c(C)ccc2-c2ccccc2)cc1 | 42.8% |
| CCC(CC)C(=O)c1c[nH]c(C(=O)NCCCN2CCOCC2)c1 | 0.96% |
| COc1cc(C)c(NC(=S)Nc2ccc(Cl)c(Cl)c2)cc1OC | 66.7% |
| O=C(COC(=O)c1ccccc1C(=O)c1ccc(Cl)c([N+](=O)[O-])c1)NC1CCCCCC1 | -2.04% |
| CCOc1ccc(NC(=S)N(CCc2c(C)[nH]c3ccc(C)cc23)Cc2ccco2)cc1 | -0.93% |
| COC(=O)C1=C(CSc2nc3ccccc3o2)NC(=O)NC1c1cc(C)ccc1C (stereo not drawn) | 9.04% |
| CC1=CN2C(=N)/C(=C/c3ccc([N+](=O)[O-])o3)C(=O)N=C2S1 | 66.7% |
| Cc1c(N2C(=O)c3cccc4cccc(c34)C2=O)c(=O)n(-c2ccccc2)n1C | 6.58% |
| NNC(=O)c1cccc(COc2ccc3c(c2)CCC3)c1 | 57.4% |
| CCNC(=S)N(CCc1c(C)[nH]c2ccc(C)cc12)Cc1cccs1 | 23.4% |
| COc1ccc(CCNC(=S)Nc2ccc(C)cc2C)cc1 | 49.5% |
| COC(=O)CNC(c1ccccc1)c1cc(Cl)ccc1NC(=O)c1cccc(Cl)c1 (stereo not drawn) | 8.51% |
| Cc1ccc(-c2nnc3n2CCCCC3)cc1 | 69.4% |
| CCCCCCc1cc2cc(S(=O)(=O)c3ccc(Cl)cc3)c(=O)oc2cc1O | 85.1% |
| Fc1ccc(CNC(=S)NC2CCCCCC2)cc1 | 63.2% |
| COc1ccc(C(=O)N(c2ccc(OC)cc2)S(=O)(=O)c2cccs2)cc1 | 41.3% |
| N=c1c2c(ncn1Cc1ccco1)Oc1ccc3ccccc3c1C2c1ccccc1 (stereo not drawn) | 36% |
| Cn1c(N=Nc2ccccc2)nc2ccccc21 | 77.7% |

| Structure (SMILES) | inhibition |
| --- | --- |
| OC(COCC(F)(F)C(F)(F)C(F)(F)C(F)F)Cn1c2ccccc2c2ccccc21 (stereo not drawn) | 81.1% |
| Cc1cc(C(=O)CSc2nnc(-c3ccc(Cl)cc3)n2CC2CCCO2)c(C)n1C (stereo not drawn) | -2.38% |
| O=C1c2ccccc2C2=Nc3ccccc3SC(c3ccc(Cl)cc3)C12 (stereo not drawn) | 47.8% |
| CCOc1ccccc1CNC(=O)c1ccc(Sc2ccc(Cl)cc2)c(NC(C)=O)c1 | 13.3% |
| CNC(=S)NCCC(c1ccccc1)c1ccccc1 | 16.6% |
| O=C1CC(SC(=Nc2ccccc2)Nc2ccccc2)C(=O)N1c1ccc(Cl)c(Cl)c1 (stereo not drawn) | 23.9% |
| CC(Sc1ccc(Cl)cc1)C(=O)Nc1ccccc1-c1ccccc1 (stereo not drawn) | 10.3% |
| C[n+]1ccc(/C=C/c2ccccc2O)c2ccccc21 | 39.9% |
| Cc1cccc(OCCCCCn2ccnc2)c1C | 65% |
| Cn1c(/C=C/c2ccccc2)nc2ccccc21 | 66.8% |
| Cc1nc(N2CCCCC2)c2c(C)c(C(=O)Nc3ccccc3C(F)(F)F)sc2n1 | -18.9% |
| CC(=O)Nc1sc2c(c1C(c1ccc(Cl)cc1)N1CCOCC1)CCCC2 (stereo not drawn) | 18.3% |
| CC(c1cccs1)N(Cc1ccco1)C(=O)Nc1ccc(Cl)c(Cl)c1 (stereo not drawn) | 43.1% |
| CCc1ccccc1NC(=O)C1C(c2ccccc2)C1(Cl)Cl (stereo not drawn) | 56.1% |
| O=C(Nc1cccc(S(=O)(=O)N2CCCCC2)c1)Nc1ccc(Cl)cc1Cl | 66.6% |
| Cc1ccc(S(=O)(=O)Nc2ccc(N=Nc3ccc(O)cc3)cc2)cc1 | 15.1% |
| OCCNc1nc(SCc2ccccc2)nc2sc3c(c12)CCC3 | 59.7% |
| Cc1ccc(NC(=S)Nc2ccc(C(C)C)cc2)cc1S(=O)(=O)N1CCCCCC1 | -14.1% |
| O=C(Nc1ccccc1)Nc1cc(Cl)cc(Cl)c1 | 78.3% |
| CCOC(=O)c1sc(NC(=O)CSc2n[nH]c(-c3ccccc3)n2)c(C#N)c1C | 59.3% |
| CC(NC(=O)Nc1ccc(Cl)c(Cl)c1)C(c1ccccc1)N1CCOCC1 (stereo not drawn) | 43.7% |
| CCn1c2ccccc2c2cc(CN3CCN(Cc4cc(OC)ccc4O)CC3)ccc21 | 40.8% |
